The source of these data is paper PMC12040169 (PLOS Biology, 2025).

The other results are listed elsewhere or left out.

For this experiment, the system named is T1, C. trachomatis L2/434/Bu expressing GFP (CTL2-GFP).
T1 construct: L2/434/Bu GFP intracellular growth in HeLa cells
The arrangement: species or system HeLa; C. trachomatis total inclusion area by high-content imaging, normalised to DMSO. The following applies: total inclusion area; 28.5 h, 10 µM; inhibitor. Summed up:
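Bulk GFP and resorufin signals were read first. Wells were then fixed, stained with Hoechst and imaged to detect GFP inclusions and host nuclei. MICs followed the previously described calculation.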
Regarding `Nc1ncc(-c2cccc(/C=C/C(=O)O)c2)nc1NCCCO` [CBK063887], the “% of control remaining” value is given as 78.4905.

With `COc1cccc2sc(Nc3nc4ccc(S(C)(=O)=O)cc4s3)nc12` [CBK287472], the “% of control remaining” value came out at 63.6878. For the molecule `Cc1cc(Cn2ccc(C(F)(F)F)n2)c(C)c(-c2c(C#N)c(N)nc3c2CCCCC3)c1` [CBK267928], the “% of control remaining” value was 97.5616. Then `Cc1noc(C)c1NC(=O)c1cn(C)c2ccccc12` [CBK200312], with 114.358; and `CC1CCCN(Cc2nc3c([nH]2)c(=O)n(C)c(=O)n3C)C1` (stereo not shown) [CBK306054], with 40.7925; and `C/C(=N\NC(=O)CNC(=O)c1ccc(Br)cc1)c1ccccc1` [CBK262020], with 103.478. The same measure for `CS(=O)(=O)c1ccc(-c2cccc(COC3CCN(C(=O)Cc4cccc5ccccc45)CC3)c2)cc1` [CBK149510]: 81.2507; for `CCNC(=O)N1CC2(CCN(Cc3ccc4ccccc4c3)CC2)c2ccccc21` [CBK126696]: 96.2553. With `O=C(c1ccccc1)c1ccc(OCCO)cc1` [CBK000725], the “% of control remaining” value is 85.4059.

With `Cc1occc1SCC(=O)Nc1ccc(CN2CCOCC2)cc1` [CBK306453], the “% of control remaining” value is 80.9795. The same measure for `O=C1S/C(=C\c2ccc(O)c([N+](=O)[O-])c2)C(=O)N1Cc1ccc(F)cc1` [CBK102928]: 99.4488; for `CCCN1CCC(CNC(=O)c2cnn(-c3ccc(F)cc3)c2)CC1` [CBK282466]: 93.3993; for `COCCN(Cc1nccs1)C(=O)C1CCc2nn(C)c(=O)n2C1` (stereo not shown) [CBK306506]: 94.44. As for `Nc1ncc(-c2ccoc2)nc1Nc1ccc2[nH]ccc2c1` [CBK063868], the “% of control remaining” value is given as 108.021. Then `COc1ccc(C2SCCCS2)cc1C(C)(C)C` [CBK018886], with 105.644; and `Cc1cc(C)n(-c2nc3cc(Cl)ccc3nc2NCc2ccc3c(c2)OCO3)n1` [CBK268482], with 86.659.

Regarding `Cc1[nH]c2cccc(C(=O)N3CCCCC3CCNC(=O)c3ccccc3)c2c1C` (stereo not shown) [CBK285976], the “% of control remaining” value was 62.4322. Turning to `Cn1cncc1C(=O)NC1Cc2ccccc2C1` [CBK200362], the “% of control remaining” value is reported as 111.427.

Consider `CC(NC(=O)/C(=C\c1ccc(Cl)cc1)NC(=O)c1ccco1)C(=O)O` (stereo not shown) [CBK263617], for which the “% of control remaining” value is 97.6232.

`Cc1ncsc1CCOc1nccnc1N1CCCC1` [CBK115752]: the “% of control remaining” value is reported as 75.5201. The same measure for `COc1cccc(-c2ccc(C(=O)NCCNC(C)=O)c(N3CCOCC3)n2)c1` [CBK076465]: 96.4428; for `CCc1nnc(NC(=O)c2cc(OC)c(OC)c(OC)c2)s1` [CBK058342]: 62.5224; for `O=C1CC(C(=O)N2CCN(C(=O)c3ccco3)CC2)c2ccccc21` (stereo not shown) [CBK144464]: 101.287.

As to `O=C(CSc1ncccn1)Nc1sc2c(c1C(=O)Nc1ccccc1)CCCC2` [CBK265939], the “% of control remaining” value is given as 66.7421. With `CC(=O)N(C)Cc1cccc(Nc2ncnc3c2cnn3CCO)c1` [CBK305979], the “% of control remaining” value is 69.0386. With `CCc1nc2ccc(C(=O)NCCCN3CCCC3=O)cn2c1N(C)C(=O)COc1ccccc1` [CBK145855], the “% of control remaining” value is on record as 98.1691. On to `COc1ccc(C(=O)Nc2ccccc2)cc1NC(=O)c1cc(C(F)(F)F)cc(C(F)(F)F)c1` [CBK263465], for which the “% of control remaining” value is 92.6103. In the case of `O=C(NCCN1CCCC1)c1ccc2nc[nH]c2c1` [CBK153311], the “% of control remaining” value was 109.549.

Turning to `COc1cccc(CN2CCC3(C2)c2[nH]c4c(C)cccc4c2CCN3C(C)=O)c1` (stereo not shown) [CBK039662], the “% of control remaining” value was 68.9502. Then `Cn1c(C(=O)N2CCc3ccccc32)cc2ccccc21` [CBK200406], with 75.8361; and `Nc1ncc(-c2cccs2)nc1-c1ccc(F)c(Cl)c1` [CBK063990], with 66.8912; and `N=c1n(CC(=O)c2ccc(Br)s2)c2ccccc2n1Cc1ccccc1` [CBK262482B], with 95.7783. Take `NC(=O)c1ccccc1NC(=O)C1CCC(C(=O)Nc2ccccc2C(N)=O)CC1` (stereo not shown) [CBK268716]: the “% of control remaining” value stood at 82.5438. Then `O=C(O)CNC(=O)CNC(=O)Cn1c(-c2ccccc2)cc2ccccc21` [CBK286550], with 76.9298; and `COc1ccc(NS(=O)(=O)c2cc(C(=O)O)sc2Br)cn1` [CBK297943], with 65.0908. Regarding `Nc1nc(OCCOc2ccccc2)cnc1-c1ccc2c(c1)OCO2` [CBK145097], the “% of control remaining” value worked out at 107.109. The same measure for `COc1ccc2cc(C)c3n[nH]c(=O)n3c2c1` [CBK283765]: 79.6962; for `Cn1c(-c2ccccc2)c(C(=O)C(N)=O)c2ccccc21` [CBK288465]: 109.099; for `Cc1cc(CNS(=O)(=O)c2ccc(-c3ccon3)s2)no1` [CBK062276]: 83.4521.

Take `O=S(=O)(Nc1nnn[nH]1)c1ccc(Cl)c(Cl)c1` [CBK062387]: the “% of control remaining” value turned out to be 71.6092. As for `CN1CCN(C(=O)c2cccc(NS(=O)(=O)c3cc(Cl)sc3Cl)c2)CC1` [CBK038966], the “% of control remaining” value is 97.0227. Then `Nc1cc2cccnc2nc1-c1cccnc1` [CBK067602], with 115.207; and `CCc1cc(CNC(=O)C(c2ccccc2)N2CCC(C)CC2)on1` (stereo not shown) [CBK281592], with 97.1687; and `O=S(=O)(NCC1CCCO1)c1ccc2oc3ccc(S(=O)(=O)NCC4CCCO4)cc3c2c1` (stereo not shown) [CBK265914], with 66.7557. The same measure for `N#Cc1c(NC(=O)CSc2ncnc3c2cnn3-c2ccccc2)sc2c1CCCC2` [CBK269478]: 92.2067; for `c1cncc(CNc2cccc(OCCOc3nccnc3N3CCNCC3)c2)c1` [CBK200008]: 40.7251; for `O=C(Cn1c(C2CCOCC2)cc2cccnc21)N1CCCCCC1` [CBK284674]: 42.915. The same measure for `Cc1cccc(C(=O)N2CCCCC2CN(C)C)c1` (stereo not shown) [CBK074171]: 52.5009; for `O=C(CNCc1ccc2c(c1)OCO2)NCc1ccc2c(c1)OCO2` [CBK074763]: 128.499; for `COC(=O)c1cn(-c2ccc(Cl)cc2)c(=O)c2ccccc12` [CBK116489]: 69.83. As to `COc1ccc(-c2cc(C(=O)Nc3cccc(C(=O)O)c3)cnc2-c2ccc(F)cc2)cn1` [CBK038064], the “% of control remaining” value was 100.332. Then `Cc1cc(C)cc(NC(=O)Cn2cnc3c(sc4ccccc43)c2=O)c1` [CBK287807], with 88.1512; and `Cn1cnc2cc(NC(=O)NCCN3CCCC(CO)C3)ccc21` (stereo not shown) [CBK307582], with 69.1831.

As to `CC(NC(=O)C1CCN(Cc2ccccn2)CC1)c1cccc2ccccc12` (stereo not shown) [CBK148662], the “% of control remaining” value is reported as 59.782.

Turning to `O=C(NCc1cccs1)C1(Cc2ccccc2-c2coc3ccccc23)CCOCC1` [CBK286310], the “% of control remaining” value is 79.8057.

`COc1cnc(C(=O)NCCc2ccc(S(=O)(=O)NC(=O)NC3CCCCC3)cc2)cn1` [CBK011761]: the “% of control remaining” value came out at 74.1167. Turning to `O=C(Nc1cc(Cl)ccc1O)c1ccc(C(=O)Nc2cc(Cl)ccc2O)cc1` [CBK266784], the “% of control remaining” value is 101.652. Then `CC1(C)NC(=O)N(CC(O)CN(c2cc(Cl)ccc2Cl)S(=O)(=O)c2ccccc2)C1=O` (stereo not shown) [CBK033672], with 100.65. The same measure for `Cn1cc(NC(=O)c2ccc(CN3CCCC3=O)cc2)cn1` [CBK306322]: 35.6106. The same measure for `CC(C)(C)OC(=O)N1CCN(Cc2ccc(N)c3ccccc23)CC1` [CBK084530]: 93.9482.

In the case of `O=C(NCCSCc1c(F)cccc1Cl)Nc1cccc(Cl)c1` [CBK268574], the “% of control remaining” value came to 71.9763.

Consider `Cc1ccc(CSc2cnc(C(C)(C)C)nc2)cc1` [CBK019832], for which the “% of control remaining” value is listed as 52.8407. Consider `CC1CCN(S(=O)(=O)c2cc(S(=O)(=O)N3CCC(C)CC3)c3cccc4c3c2NC4=O)CC1` [CBK263716], for which the “% of control remaining” value is listed as 95.5255. The same measure for `CC(C)c1cc(C(=O)N2CCNC(c3ccccc3)C2)nc2ncnn12` (stereo not shown) [CBK306533]: 69.6057; for `COc1ccc(C(=O)Nc2c(Cl)ccc3nsnc23)cc1` [CBK270252]: 106.67.

For `CC(=O)c1ccc(NC(=O)CSc2nnc(-c3ccncc3)s2)cc1` [CBK269183], the “% of control remaining” value is on record as 100.308. Then `COc1ccccc1NC(=O)C(=O)NCc1cccnc1` [CBK287724], with 87.0432. The same measure for `CN(Cc1cnn(C)c1)C(=O)COCc1nc2cc(F)ccc2[nH]1` [CBK306687]: 95.4443; for `COc1ccccc1CC(=O)NNC(=O)c1ccco1` [CBK262956]: 115.285; for `COc1ccc(Oc2cncc(OC3CCN(CCCn4c(=O)[nH]c5ccccc54)C3)n2)cc1OC` (stereo not shown) [CBK084406]: 96.5667.

Turning to `Cc1ccc(-c2nc3ncccc3o2)cc1NC(=S)NC(=O)c1ccc(-c2cccc([N+](=O)[O-])c2)o1` [CBK268294], the “% of control remaining” value stood at 85.3595.

As to `COc1ccc(COC(=O)C2CC(=O)N(Cc3ccc(C)cc3)C2)cc1` (stereo not shown) [CBK296624], the “% of control remaining” value was found to be 71.254. Turning to `CCC(=O)c1cc(F)c(N2CCN(C(=O)c3cccs3)CC2)cc1C` [CBK033892], the “% of control remaining” value was 58.7784. Then `O=C(NCc1ccc2c(c1)OCO2)c1cnc(-c2ccc(Cl)cc2)c(-c2ccco2)c1` [CBK037547], with 38.3636; and `CCN(CC)C(=O)C1CCCN(C(=O)NCCc2c[nH]cn2)C1` (stereo not shown) [CBK156124], with 93.132.

As for `COc1ccc(-c2c(-c3ccc(F)cc3)[nH]c3[nH]c(=O)[nH]c(=O)c23)cc1` [CBK288232], the “% of control remaining” value worked out at 68.6613. Then `O=S(=O)(CCOc1ccccc1)N(CCOc1ccccc1)C1CCCCC1` [CBK022003], with 33.1902; and `Cn1c(=O)n(CC(=O)NC23CC4CC(CC(C4)C2)C3)c2cccnc21` [CBK283795], with 84.2647. `CC(=O)Nc1ccc(S(=O)(=O)NC2(C(F)(F)F)NC(=O)N(C3CCCC3)C2=O)cc1` (stereo not shown) [CBK268100]: the “% of control remaining” value was found to be 70.1395.
